Reference: the supplement of paper PMC10037445
In all, about 2,900 compounds were measured (“IRF Lucia reporter activity, fold change vs agonist alone”: median about 0.9, highest 2% from about 2.8 on). The list shows a part of the results.

Key:
RAW-Dual [1] = assay: IRF Lucia reporter activity, fold change vs agonist alone; cytotoxicity flag (confluency mask): not cytotoxic; higher = enhanced IRF activity
How it was run: (§1)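 RAW-Dual macrophages were seeded in DMEM at 50,000 cells/well in 384-well plates, given 50 nL of library stock by pin tool, and given a PRR agonist 1 h later. Plates were held at 37 °C, 5% CO2 for 20 hours, after which supernatant was read for IRF by QuantiLuc luminescence and for NF-κB by QuantiBlue absorbance at 620 nm. Reporter activity is expressed as fold change over wells that received agonist alone. A well was called cytotoxic when IncuCyte confluency fell below 70% of agonist controls in both mask sets.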

RAW-Dual [2] = assay: IRF Lucia reporter activity, fold change vs agonist alone; higher = enhanced IRF activity; settings: library stock concentration (final ~1000-fold dilution): 10 mM, agonist: MPLA (TLR4) […]
How it was run: as §1

RAW-Dual [3] = assay: IRF Lucia reporter activity, fold change vs agonist alone; cytotoxicity flag (confluency mask): cytotoxic (confluency <70% of control); higher = enhanced IRF activity
How it was run: as §1

[4] = agonist: 3'3'-cGAMP (STING) 10 ug/mL
[5] = cytotoxicity flag (confluency mask): not cytotoxic
[6] = cytotoxicity flag (confluency mask): cytotoxic (confluency <70% of control)

Nc1nc(OCc2cc(Br)cs2)c2[nH]cnc2n1 (library stock concentration (final ~1000-fold dilution): 10 mM)
IRF Lucia reporter activity (RAW-Dual [1]; [4]): 0.354 | IRF Lucia reporter activity (RAW-Dual [1]; agonist: LPS (TLR4) 0.1 ug/mL): 0.525

CC1(C)CN(C(=O)c2ccc(-c3cccc4nc(NC(=O)C5CC5)nn34)cc2)C1
IRF Lucia reporter activity (RAW-Dual [2]; [5]): 0.713

CC1(C)CN(C(=O)c2ccc(-c3cccc4nc(NC(=O)C5CC5)nn34)cc2)C1 (library stock concentration (final ~1000-fold dilution): 10 mM)
IRF Lucia reporter activity (RAW-Dual [1]; [4]): 0.308 | IRF Lucia reporter activity (RAW-Dual [1]; agonist: LPS (TLR4) 0.1 ug/mL): 0.577

Clc1ccc(C2(c3ccc(-c4cn[nH]c4)cc3)CCNCC2)cc1 (library stock concentration (final ~1000-fold dilution): 10 mM)
IRF Lucia reporter activity (RAW-Dual [3]; [4]): 0.215 | IRF Lucia reporter activity (RAW-Dual [3]; agonist: LPS (TLR4) 0.1 ug/mL): 1.04

Clc1ccc(C2(c3ccc(-c4cn[nH]c4)cc3)CCNCC2)cc1
IRF Lucia reporter activity (RAW-Dual [2]; [6]): 1.09

CCS(=O)(=O)c1cccc(-c2cc(C(=O)NC3CCN(C)CC3)c(C)c3[nH]c4ncc(C)cc4c23)c1 (library stock concentration (final ~1000-fold dilution): 10 mM)
IRF Lucia reporter activity (RAW-Dual [3]; [4]): 0.13 | IRF Lucia reporter activity (RAW-Dual [3]; agonist: LPS (TLR4) 0.1 ug/mL): 0.0788

CCS(=O)(=O)c1cccc(-c2cc(C(=O)NC3CCN(C)CC3)c(C)c3[nH]c4ncc(C)cc4c23)c1
IRF Lucia reporter activity (RAW-Dual [2]; [6]): 0.112

Fc1ccc(Cn2c(Cl)nc3ccccc32)cc1 (library stock concentration (final ~1000-fold dilution): 10 mM)
IRF Lucia reporter activity (RAW-Dual [1]; [4]): 1.25 | IRF Lucia reporter activity (RAW-Dual [1]; agonist: LPS (TLR4) 0.1 ug/mL): 1.95

Fc1ccc(Cn2c(Cl)nc3ccccc32)cc1
IRF Lucia reporter activity (RAW-Dual [2]; [5]): 1.51

C[C@H]1CC[C@@]2(OC1)O[C@H]1C[C@H]3[C@@H]4CC[C@@H]5C[C@@H](O)CC[C@]5(C)[C@H]4CC[C@]3(C)[C@H]1[C@@H]2C (library stock concentration (final ~1000-fold dilution): 10 mM)
IRF Lucia reporter activity (RAW-Dual [1]; [4]): 0.937 | IRF Lucia reporter activity (RAW-Dual [1]; agonist: LPS (TLR4) 0.1 ug/mL): 1.18

CC(Cn1ccc(-c2ccc(C#N)c(Cl)c2)n1)NC(=O)c1cc(C(C)O)[nH]n1 (stereo not given) (library stock concentration (final ~1000-fold dilution): 10 mM)
IRF Lucia reporter activity (RAW-Dual [1]; [4]): 0.982 | IRF Lucia reporter activity (RAW-Dual [1]; agonist: LPS (TLR4) 0.1 ug/mL): 1.09

CC(Cn1ccc(-c2ccc(C#N)c(Cl)c2)n1)NC(=O)c1cc(C(C)O)[nH]n1 (stereo not given)
IRF Lucia reporter activity (RAW-Dual [2]; [5]): 1.02

NC(=O)C1CCCc2c1[nH]c1ccc(Cl)cc21 (stereo not given)
IRF Lucia reporter activity (RAW-Dual [2]; [5]): 0.912

NC(=O)C1CCCc2c1[nH]c1ccc(Cl)cc21 (stereo not given) (library stock concentration (final ~1000-fold dilution): 10 mM)
IRF Lucia reporter activity (RAW-Dual [1]; [4]): 1.1 | IRF Lucia reporter activity (RAW-Dual [1]; agonist: LPS (TLR4) 0.1 ug/mL): 0.919

CC1CN(CC(=O)Nc2ccc3c(c2)Cc2cccc(-c4cc(=O)cc(N5CCOCC5)o4)c2S3)CC(C)O1 (stereo not given) (library stock concentration (final ~1000-fold dilution): 10 mM)
IRF Lucia reporter activity (RAW-Dual [1]; [4]): 0.508 | IRF Lucia reporter activity (RAW-Dual [1]; agonist: LPS (TLR4) 0.1 ug/mL): 6.62

CC1CN(CC(=O)Nc2ccc3c(c2)Cc2cccc(-c4cc(=O)cc(N5CCOCC5)o4)c2S3)CC(C)O1 (stereo not given)
IRF Lucia reporter activity (RAW-Dual [2]; [5]): 5.96

Cc1ccc(Nc2nccc(N(C)c3ccc4c(C)n(C)nc4c3)n2)cc1S(N)(=O)=O.Cl (library stock concentration (final ~1000-fold dilution): 10 mM)
IRF Lucia reporter activity (RAW-Dual [1]; [4]): 0.0722 | IRF Lucia reporter activity (RAW-Dual [1]; agonist: LPS (TLR4) 0.1 ug/mL): 0.446

Cc1ccc(Nc2nccc(N(C)c3ccc4c(C)n(C)nc4c3)n2)cc1S(N)(=O)=O.Cl
IRF Lucia reporter activity (RAW-Dual [2]; [5]): 0.646

CCOC(=O)C1=C(C)NC(=S)NC1c1cccc(O)c1 (stereo not given) (library stock concentration (final ~1000-fold dilution): 10 mM)
IRF Lucia reporter activity (RAW-Dual [1]; [4]): 1.09 | IRF Lucia reporter activity (RAW-Dual [1]; agonist: LPS (TLR4) 0.1 ug/mL): 1.02

CCn1c(N)c(C(=O)NC)c(=O)c2ccc(C#CC(C)(O)COC)nc21 (stereo not given)
IRF Lucia reporter activity (RAW-Dual [2]; [5]): 0.874

CCn1c(N)c(C(=O)NC)c(=O)c2ccc(C#CC(C)(O)COC)nc21 (stereo not given) (library stock concentration (final ~1000-fold dilution): 10 mM)
IRF Lucia reporter activity (RAW-Dual [1]; [4]): 0.841 | IRF Lucia reporter activity (RAW-Dual [1]; agonist: LPS (TLR4) 0.1 ug/mL): 0.781

OCCn1cc(-c2ccc3c(c2)CC/C3=N\O)c(-c2ccncc2)n1
IRF Lucia reporter activity (RAW-Dual [2]; [5]): 0.784

OCCn1cc(-c2ccc3c(c2)CC/C3=N\O)c(-c2ccncc2)n1 (library stock concentration (final ~1000-fold dilution): 10 mM)
IRF Lucia reporter activity (RAW-Dual [1]; [4]): 0.614 | IRF Lucia reporter activity (RAW-Dual [1]; agonist: LPS (TLR4) 0.1 ug/mL): 0.658

Nc1nc(OCC2CCCCC2)c2nc[nH]c2n1 (library stock concentration (final ~1000-fold dilution): 10 mM)
IRF Lucia reporter activity (RAW-Dual [1]; [4]): 0.486 | IRF Lucia reporter activity (RAW-Dual [1]; agonist: LPS (TLR4) 0.1 ug/mL): 0.801

Nc1nc(OCC2CCCCC2)c2nc[nH]c2n1
IRF Lucia reporter activity (RAW-Dual [2]; [5]): 0.754

CC1COC2(CCN(c3nc(=O)c4cc(C(F)(F)F)cc([N+](=O)[O-])c4s3)CC2)O1 (stereo not given)
IRF Lucia reporter activity (RAW-Dual [2]; [5]): 1.05
